# Reference: PubChem BioAssay AID686978 (National Center for Advancing Translational Sciences (NCATS), 2013)
# Hit rate of the full screen: of about 420,000 compounds, about 64,000 (15%) were called active. Inconclusive means that the source gave no clear call. Such entries were picked first, then a sample of the others. Calls follow the shape of the dose curve; as a rule, active = well fitted inhibition curve with a large enough effect; inconclusive = small, poorly fitted or top-dose-only effect; inactive = flat fitted curve, though single readings scatter. No potency is given beside an inconclusive call; the fits are too rough.
# Experiment: qHTS for Inhibitors of human tyrosyl-DNA phosphodiesterase 1 (TDP1): qHTS in cells in absence of CPT; also: nearly all actives have a fitted effect of over 55% in size
# Conditions: DT40 Tdp1-/- hTDP1 cells, no CPT, ATP luminescence, 48 h; activity change, negative = growth inhibition: at 46.2 µM (top of the series) unless noted
# In short: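 Camptothecin absent (DMSO only). Human TDP1-complemented DT40 knockout cells, 400 cells/well, 37 °C for minimum 48 hr; ATP measured via CellTiter-Glo, 30 min dark incubation, luminescence.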
# % is scaled to controls: 0 for no effect and ±100 for the full control effect; potency is read from the fitted curve at half-maximal effect; tags tell the direction and shape of the fitted curve.
SMILES,Potency,"activity change, negative = growth inhibition"
COC(=O)c1c(CCl)noc1C(=O)NC(C)C,"inconclusive [inhibitor, single point]",
CCOC(=O)c1sc2ncn(CC(=O)Nc3ccc(C)cc3Br)c(=O)c2c1C,,inactive: 4.78%
O=c1onc(-c2ccc(Cl)cc2)n1Cc1ccc(F)cc1,,inactive: -5.4%
Cc1ccc(NC(=S)Nn2cnnc2)cc1,"inconclusive [inhibitor, single point]",
CCc1ccc(Nc2nnc(SCC(=O)NCCN3C(=O)CSC3=O)s2)cc1,"inconclusive [inhibitor, single point]",
COC(=O)c1ccc([N+](=O)[O-])c(CS(=O)(=O)c2ccc(Cl)cc2)c1,,inactive: 6.63%
Cc1cc(OCC(=O)Nc2ccncc2)ccc1Br,active: 23.1 µM,
COc1ccccc1-n1c(/C=C/c2c(C)n(C)c3ccccc23)nc2ccccc2c1=O,active: 3.66 µM,
Brc1cccc(-c2nc3ccc(Br)cn3c2Cc2ccsc2)c1,,inactive: -17.6%
CCCNc1nc(Nc2ccc(C)c(Cl)c2)c2cnn(C)c2n1,active: 23.1 µM,
O=C(C[n+]1cccc2cc(Cl)ccc21)c1ccc2c(c1)CCCC2,,inactive: -4.81%
OC(CN1CCN(c2ccccc2)CC1)Cn1c2ccccc2c2ccccc21 (stereo not drawn),active: 13 µM,
COc1cc(/C=C/c2cc[n+](C)cc2)ccc1OCC(=O)Nc1ccccc1,,inactive: -28.3%
CCOC(=O)c1ccccc1NC1c2ccccc2C(=O)N1c1ccc(C)cn1 (stereo not drawn),active: 18.4 µM,
CC(=O)c1ccc(OCC(O)CN2CCN(S(=O)(=O)c3c(C)cc(C)cc3C)CC2)cc1 (stereo not drawn),"inconclusive [inhibitor, partial curve]",
Cc1ccc(CSc2nc(-c3ccccc3)c(C#N)c(=O)[nH]2)cc1,,inactive: 6.61%
O=C1c2cnc3nc(SCc4ccccc4)nn3c2CC2c3ccccc3CCN12 (stereo not drawn),active: 18.4 µM,
O=C(CCN1CCN(c2ccccc2F)CC1)Nc1ccc(F)cc1,"inconclusive [inhibitor, partial curve]",
COc1cc(C(=O)N2CCN(C(=O)c3cccc4ccccc34)CC2)cc(OC)c1OC,,inactive: 3.19%
Cc1ccc(C(=O)NNC(=O)Cn2ccc(C(F)(F)F)n2)o1,,inactive: -1.61%
CCCC(=O)n1nc(-c2ccc(OC)cc2)nc1N,,inactive: -13.3%
CCC1([N+](=O)[O-])COC(c2ccc(C)cc2)OC1 (stereo not drawn),,inactive: -3.79%
COc1ccc(-c2noc(CSc3nnc(-c4ccncc4)n3-c3ccc(C)cc3)n2)cc1,"inconclusive [inhibitor, single point]",
CN(C)CCNc1ncnc2c1sc1nc(N3CCOCC3)c3c(c12)CC(C)(C)SC3,active: 20.6 µM,
Cc1cccc(NC(=O)c2cc3n(n2)C(C(F)(F)F)CC(C2CC2)N3)c1C (stereo not drawn),,inactive: 5.37%
Cc1ccn2c(Cc3ccccc3)c(-c3ccc(Br)cc3)nc2c1,"inconclusive [inhibitor, partial curve, poor fit]",

SMILES,Potency,"activity change, negative = growth inhibition"
O=C(Nc1ccc(N2CCCCC2)cc1)c1cncc(Br)c1,"inconclusive [inhibitor, partial curve]",
Cc1nc(N2CCN(c3ccccc3)CC2)nc2c1C(=O)CCC2,"inconclusive [inhibitor, single point]",
COc1cc(OC)cc(C(=O)Nc2cccc3cccnc23)c1,"inconclusive [inhibitor, single point]",
O=C(Nc1ccccc1)N1CC2(CCN(C(=O)c3ccco3)CC2)C1,,inactive: -4.03%
CCOc1ccc(Sc2cc(C(=O)NCCc3ccccc3)c3ccccc3n2)cc1,,inactive: -28.4%
COc1cccc(CN2CC(O)=C(c3nc(-c4ccc(Cl)cc4)cs3)C2=N)c1,active: 9.2 µM,
COCCn1c(=S)[nH]c2cc(C(=O)N3CCCC(C)C3)ccc2c1=O (stereo not drawn),"inconclusive [inhibitor, partial curve]",
Cc1c(Cl)cccc1NC(=S)NC(=O)c1cncc(Br)c1,,inconclusive: -32.4% [inhibitor]
CCCn1c(N)c(N(CCOC)C(=O)c2cc(S(=O)(=O)N3CCCCCC3)ccc2OC)c(=O)[nH]c1=O,,inactive: -6.41%
S=C(NCCc1ccccc1)NCc1ccccc1Cl,"inconclusive [inhibitor, single point]",
CN(CCCC(=O)NCc1ccccc1)S(=O)(=O)c1ccc([N+](=O)[O-])cc1,,inactive: -10.1%
Cn1ccnc1SCC(=O)Nc1cc(F)ccc1F,,inactive: 4%
Cc1nc(NCc2ccco2)c2cn[nH]c2n1,"inconclusive [inhibitor, single point]",
COc1cccc(CNC(=O)C2CCC(CNS(=O)(=O)c3ccc(Br)s3)CC2)c1 (stereo not drawn),"inconclusive [inhibitor, single point]",
CCN1C(=O)N[C@H](c2ccccc2)C(C(C)=O)=C1C,,inactive: -27.3%
O=C(c1ccc(C(F)(F)F)cc1)C1CCCN(C(=O)CCc2ccncc2)C1 (stereo not drawn),active: 6.51 µM,
CCOC(=O)N1CCN(C(=O)c2ccc3nc(N4CCCCC4)sc3c2)CC1,"inconclusive [inhibitor, single point]",
CCOc1ccc(CN2CCN(Cc3cccc4c3OCO4)CC2CCO)cc1 (stereo not drawn),"inconclusive [inhibitor, partial curve]",
Cc1ccc(CC2CC(=O)N(c3cc(C)ccc3C)C2=O)cc1 (stereo not drawn),"inconclusive [inhibitor, single point]",
O=S(c1ccc2ccccc2c1)c1cnns1 (stereo not drawn),active: 2.59 µM,
Cc1onc(-c2ccccc2Cl)c1C(=O)NC(=S)Nc1ccccc1C(N)=O,"inconclusive [inhibitor, single point]",
CCOC(=O)c1cnc(SCC(=O)Nc2cccc(OC)c2)nc1N,"inconclusive [inhibitor, partial curve]",
COc1cc(OC)cc(-c2c(-c3ccc(F)cc3)c3cc(-c4ccc5[nH]ccc5c4)ccc3n2C)c1,"inconclusive [inhibitor, single point]",
Cc1ccc(-c2[nH]c3ccccc3c2SCCNC(=O)c2cc3ccccc3oc2=O)cc1,"inconclusive [inhibitor, single point]",
O=C(c1ccoc1)N1CCC2(CC1)Oc1ccc(F)cc1C(=O)C21CC(c2cccnc2)=NO1 (stereo not drawn),"inconclusive [inhibitor, single point]",
Cc1ccc(S(=O)(=O)CCC(=O)OCCOc2ccc(Br)cc2)cc1,"inconclusive [inhibitor, single point]",

SMILES,Potency,"activity change, negative = growth inhibition"
COc1ccc(OCCN(C)CC(=O)Nc2ccccc2SC)cc1,"inconclusive [inhibitor, single point]",
Cc1ccc(N=C2C(=S)N(c3ccc(C)cc3)C(=N)N2/N=C/c2ccc(Cl)cc2)cc1,active: 25.9 µM,
CCOC(=O)C1CCN(C(=O)COC(=O)c2cccc(NS(=O)(=O)c3ccccc3)c2)CC1,"inconclusive [inhibitor, partial curve]",
Cc1ccc2[nH]c3c(c2c1)CC/C(=C/c1ccccc1)C3=O,"inconclusive [inhibitor, single point]",
COc1ccc(Cl)cc1C(=O)NNC(=O)C1CCCO1 (stereo not drawn),,inactive: 5.34%
Cc1cnc2c(c1SCC(=O)NCc1ccccc1Cl)c(=O)n(C)c(=O)n2C,,inactive: -19.4%
Cc1ccc(NC(=O)c2ccc3c(c2)OCCO3)cc1S(=O)(=O)Nc1cccc(Cl)c1,active: 20.6 µM,
COc1ccc(O)c(CN2CCC(n3nccc3NC(=O)C3CCCC3)CC2)c1,"inconclusive [inhibitor, single point]",
Cc1cccn2cc(CCNS(=O)(=O)c3ccc4c(c3)OCCO4)nc12,,inactive: -13.7%
COc1cc(Nc2nc3ccccc3nc2NS(=O)(=O)c2ccc([N+](=O)[O-])cc2)cc(OC)c1OC,"inconclusive [inhibitor, partial curve, poor fit]",
CCC(=O)Nc1cccc(NC(=S)NC(=O)c2ccccc2C)c1,,inactive: -9%
COc1cccc(Cn2c(=O)c(-c3cccc(F)c3)nc3cncnc32)c1,"inconclusive [inhibitor, single point]",
O=C(CSc1ccc(F)cc1)Nc1ccc(Br)cc1,active: 18.4 µM,
Cc1nn(Cc2ccccc2)c(Cl)c1/C=C1\NC(=S)NC1=O,,inactive: 3.69%
CC(C)Oc1ccc(F)cc1-c1cc(C(=O)NC2CCCCC2)[nH]n1,active: 14.6 µM,
Cc1ccc(NC(=O)CCC(=O)N2CCSc3ccccc32)cc1,"inconclusive [inhibitor, single point]",
O=C1Nc2ccccc2C1Cc1ccccc1 (stereo not drawn),,inactive: -9.69%
CC1(C)Nc2ccccc2C(=O)N1c1ccc(Br)cc1,"inconclusive [inhibitor, single point]",
CN(C)CCCNC(=S)NCCNc1nc2cc3c(cc2cc1C#N)OCO3,,inactive: -2.12%
COc1cccc(C(=O)Nc2cccc(OCc3cc(=O)n4cccc(C)c4n3)c2)c1,,inactive: -10.3%
CC1CCN(S(=O)C23CC4CC(CC(C4)C2)C3)CC1 (stereo not drawn),"inconclusive [inhibitor, single point]",
Cc1ccc(Cl)cc1N1CCN(S(=O)(=O)c2ccc(-c3ccc(=O)[nH]n3)o2)CC1,"inconclusive [inhibitor, single point]",
CN(C)c1nc(=NCc2ccco2)ss1,active: 0.0366 µM,
Cc1cccc(NC(=O)c2cc(-c3ccc(C)c(C)c3O)n[nH]2)c1,,inactive: -22.9%
CCc1cccc(NC(=O)CS(=O)Cc2nc(-c3ccc(C)cc3)oc2C)c1 (stereo not drawn),active: 16.4 µM,
O=S(=O)(Nc1ccc(-c2nc3cccnc3s2)cc1)c1ccc(Cl)s1,"inconclusive [inhibitor, single point]",
